Several values for one entry are separate records, joined by “and”; a condition that tells them apart may be missing. Equal values may be shown once. Entries after “also recorded” stand apart in the source; their conditions may differ. Part of at least one peptide drawing is inferred or uncertain, most often the ends. Square brackets hold non-standard residues; d marks the D form. Ends that are not written are not given here. Peptide text beside a SMILES is read from it.
Experiments:
[1] = test system: induction of IL-2 mRNA by SPE A in PBMC; assay type: cell-based, human
[2] = test system: induction of IL-2 / IFN-γ mRNA by TSST-1 in PBMC; assay type: cell-based, human
SEB-induced lethal shock [3] = test system: SEB-induced lethal shock; set-up: species or system BALB/c mice; details: mouse, in vivo
[4] = test system: induction of IL-2 / IFN-γ mRNA by SEA in PBMC; assay type: cell-based, human
[5] = test system: lethal challenge with TSST-1; set-up: species or system BALB/c mice; details: mouse, in vivo
[6] = test system: SEB-mediated induction of IL-2, IFN-γ and/or TNF-β gene expression in PBMC; assay type: cell-based, human
[7] = test system: SEA-induced incapacitation; set-up: species or system pigs; details: pig, in vivo
SEB-induced lethal shock [8] = test system: SEB-induced lethal shock; set-up: species or system BALB/c mice; details: mouse, in vivo; remark: listed apart in the source
SEA-induced lethal shock = test system: SEA-induced lethal shock; set-up: species or system BALB/c mice; details: mouse, in vivo
SPEA rechallenge = test system: SPEA rechallenge; set-up: species or system BALB/c mice; details: mouse, in vivo
SEB rechallenge = test system: SEB rechallenge; set-up: species or system BALB/c mice; details: mouse, in vivo
TSST-1 rechallenge = test system: TSST-1 rechallenge; set-up: species or system BALB/c mice; details: mouse, in vivo
[9] = test system: expression of IL-2 and IFN-γ genes in PBMC; assay type: cell-based, human
[10] = test system: PHA-mediated induction of IL-2 and IFN-γ genes; assay type: cell-based, human

CC(C)C[C@H](NC(=O)[C@H](CCC(=O)O)NC(=O)[C@H](CCC(N)=O)NC(=O)[C@@H](NC(=O)[C@@H](NC(=O)[C@H](C)NC(=O)[C@H](CCCCN)NC(=O)[C@H](CCCCN)NC(=O)[C@H](CCCCN)NC(=O)[C@H](CC(N)=O)NC(=O)[C@H](Cc1ccc(O)cc1)NC(=O)[C@@H](C)N)[C@@H](C)O)C(C)C)C(=O)N[C@@H](CC(=O)O)C(=O)N[C@H](C)C(=O)O [p12A, daY N K K K A T V Q E L Dda] (H-[dA]YNKKKATVQELD[dA]-OH)
inhibition of induction of IL-2 and IFN-γ mRNA by SPEA (summary) [1]: inhibits the induction of IL-2 and IFN-γ mRNA | inhibition of induction of IL-2 mRNA by SPE A [1]: inhibited | inhibition of IFN-γ expression induced by TSST-1 [2]: inhibited IFN-γ expression induced by this toxin | inhibition of induction of IL-2 and IFN-γ mRNA by TSST-1 (summary) [2]: inhibits the induction of IL-2 and IFN-γ mRNA | inhibition of induction of IL-2 mRNA by TSST-1 [2]: inhibited induction of IL-2 mRNA by TSST-1 | survival of lethal challenge with SEB (SEB-induced lethal shock [3]): 100% and 70% | survival after over 60 hours (SEB-induced lethal shock [3]; ip): about 70% | inhibition of induction of IL-2 and IFN-γ mRNA by SEA (summary) [4]: inhibits the induction of IL-2 and IFN-γ mRNA | inhibition of induction of IL-2 mRNA by SEA [4]: inhibited | protection against lethal challenge with TSST-1, peptide administered once just before challenge [5]: did not protect against lethal challenge with TSST-1 | protection against lethal challenge with TSST-1, repeated administration post-challenge [5]: significant protection | SEB antagonist activity, overall comparison [6]: more powerful as antagonist than p12(150–161) | inhibition of IFN-γ expression induced by SEB [6]: inhibited the expression induced by SEB | inhibition of induction of IL-2 and IFN-γ mRNA by SEB (summary) [6]: inhibits the induction of IL-2 and IFN-γ mRNA | inhibition of induction of IL-2 mRNA by SEB [6]: inhibited

CC(C)C[C@H](NC(=O)[C@H](CCC(=O)O)NC(=O)[C@H](CCC(N)=O)NC(=O)[C@@H](NC(=O)[C@@H](NC(=O)[C@H](C)NC(=O)[C@H](CCCCN)NC(=O)[C@H](CCCCN)NC(=O)[C@H](CCCCN)NC(=O)[C@H](CC(N)=O)NC(=O)[C@H](Cc1ccc(O)cc1)NC(=O)[C@H](CCC(N)=O)NC(=O)[C@@H](NC(=O)[C@@H](C)N)C(C)C)[C@@H](C)O)C(C)C)C(=O)N[C@@H](CC(=O)O)C(=O)N[C@H](C)C(=O)O [p14A, daV Q Y N K K K A T V Q E L Dda] (H-[dA]VQYNKKKATVQELD[dA]-OH)
inhibition of IFN-γ expression induced by TSST-1 [2]: inhibited IFN-γ expression induced by this toxin; also recorded: remarkably more potent antagonistic activity than p12A | survival of lethal challenge with SEB (SEB-induced lethal shock [3]): 90% | protection from SEB-induced lethal shock, peptide 30 min before toxin (SEB-induced lethal shock [3]; ip): all of the SEB-challenged mice were protected | survival after over 60 hours (SEB-induced lethal shock [3]; ip): about 90% | survival, peptide 3 h after SEB (SEB-induced lethal shock [3]; ip): 70% | survival, peptide 5 h after SEB (SEB-induced lethal shock [3]; ip): 60% | survival, peptide 7 h after SEB (SEB-induced lethal shock [3]; ip): 50% | suppression of diarrhea beyond last administration [7]: effective suppression of diarrhea | reduction of SEA-induced total incapacitation, vomiting and diarrhea ([7]; ip): effectively reduces toxin-induced incapacitation; also recorded: progressive reduction in total incapacitation, as well as in vomiting and in diarrhea | suppression of SEA incapacitation symptoms versus number of administrations ([7]; ip): its effect increased with number of administrations of antagonist | immunized mice that survived lethal SEB challenge (SEB-induced lethal shock [8]): 7 out of 10 | immunized survivors that survived rechallenge with a double dose of SEB (SEB-induced lethal shock [8]): 4 out of the 7 | SEA-challenged mice protected (SEA-induced lethal shock): 10 out of 10 | mice protected against death induced by SEA (SEA-induced lethal shock): protected mice from lethal challenge with SEA and 7 out of 10 | protection against SEA challenge (SEA-induced lethal shock): 100% | mice that survived fourth challenge with SPEA (SPEA rechallenge): Four out of six | survival of rechallenge with SEB in the absence of peptide (SEB rechallenge): All of these mice survived | inhibition of IFN-γ expression induced by SEB [6]: inhibited the expression induced by SEB; also recorded: remarkably more potent antagonistic activity than p12A | mice that died on rechallenge with TSST-1 in the absence of peptide (TSST-1 rechallenge): 1 out of 7

TNKKKVTAQELD [pSEB(150–161), T N K K K V T A Q E L D]
inhibition of induction of IL-2 mRNA by TSST-1 [2]: failed to inhibit the induction of IL-2 mRNA by TSST-1; also recorded: lack of antagonist activity | SEB agonist activity, induction of mRNA for IL-2 or IFN-γ by RNase protection [9]: failed to show SEB agonist activity | inhibition of PHA-mediated induction of IL-2 and IFN-γ genes [10]: failed to inhibit PHA-mediated induction of IL-2 and IFN-γ genes | antagonist activity, SEB-mediated IL-2 mRNA induction [6]: pronounced antagonist activity; also recorded: less active than the variant peptide | block of induction of IL-2, IFN-γ and TNF-β mRNA by SEB [6]: only partial inhibition | inhibition of expression of IL-2 mRNA induced by SEB, time course [6]: effectively at 6 hrs, but only partially at 8 hrs | reduction of expression of IFN-γ mRNA induced by SEB, time course [6]: reduced expression of IFN-γ mRNA by 2 hrs but not thereafter | reduction of induction of IL-2 mRNA by SEB [6]: strongly reduced the induction of this mRNA by SEB

YNKKKATVQELD [p12(150–161), Y N K K K A T V Q E L D]
effect on induction of IL-2 and IFN-γ mRNA by SEA [4]: no significant effect; also recorded: lack of antagonist activity | SEB agonist activity, induction of mRNA for IL-2 or IFN-γ by RNase protection [9]: failed to show SEB agonist activity | inhibition of PHA-mediated induction of IL-2 and IFN-γ genes [10]: failed to inhibit PHA-mediated induction of IL-2 and IFN-γ genes | SEB antagonist activity, IL-2 and IFN-γ mRNA at 8 hrs [6]: weakly or not inhibitory | SEB antagonist activity, overall comparison [6]: consistently more effective than pSEB(150–161) | antagonist activity, SEB-mediated IL-2 mRNA induction [6]: pronounced antagonist activity | block of induction of IL-2, IFN-γ and TNF-β mRNA by SEB [6]: blocked induction of IL-2, IFN-γ and TNF-β mRNA completely | block of induction of IL-2 and IFN-γ mRNA by SEB [6]: almost complete inhibition | inhibition of IL-2 gene induction by SEB [6]: 9- to 40 fold | inhibition of SEB-induced IL-2 and IFN-γ gene expression [6]: did not significantly inhibit SEB-induced gene expression | inhibition of expression of IFN-γ mRNA induced by SEB [6]: 10 fold | inhibition of expression of IL-2 mRNA induced by SEB [6]: 18 fold | inhibition of induction by SEB of waves of IL-2 mRNA and IFN-γ mRNA [6]: effectively inhibited | inhibition of induction of IL-2 and IFN-γ mRNA by SEB [6]: did not inhibit induction of IL-2 and IFN-γ mRNA

— patent US7060277B2 (priority 1996, dated 2006)
